Data as given in ChEMBL document CHEMBL4888484, “Replenishing the malaria drug discovery pipeline: Screening and hit evaluation of the MMV Hit Generation Library 1 (HGL1) against asexual blood stage Plasmodium falciparum ,using a nano luciferase reporter read-out” (2022).
In all, about 150,000 compounds went through this assay and about 540 (0.36%) showed an effect of 50% or more. This is one part of the list.

tested on: Plasmodium falciparum; test: Primary screen in NF54 nanoGlo assay, in single point, at 2uM, 72h; a lower Z score goes with more inhibition; type: functional, Erythrocyte; details: timepoint 72 hour

Compound	% Inhibition [%]	Z score
O=C(NCc1ccc(F)cc1F)[C@H]1CCCN(Cc2ccco2)C1	1	-0.2
Cc1ccc(F)c(C(=O)N[C@@H]2COCC[C@@H]2OCC2CC2)c1F	-9	1.7
CCCNC(=O)NC(=O)COc1c(C)cc(Br)cc1Cl	-19	3.73
Cc1ccc(NC2COCCOC2)c(OC[C@H]2CCCO2)c1	2	-0.44
CCCC(=O)N(Cc1ccccc1)c1nc2c(OC)ccc(C)c2s1	0	0.04
O=C(Nc1ccccc1F)c1oc2ccccc2c1NC(=O)C1CCCC1	-3	0.54
O=C(NCCc1cc(C(F)(F)F)ccn1)[C@H]1[C@@H]2CCCO[C@@H]21	0	-0.05
O=C(CCC1CCCC1)Nc1nc[nH]n1	-8	1.03
Cc1ccc(CC(=O)N2CC3(C[C@H](N4CCCC4)CO3)C2)cc1	-6	0.94
O=S(=O)(Cc1ccccc1)N1CCN2CCOC[C@@H]2C1	7	-1.41
CN(CC(=O)N[C@](C)(C#N)C1CC1)C1CCCCCC1	-2	0.29
CN1CCO[C@@H](CNc2cc(C(N)=O)ccn2)C1	4	-0.63
Cc1cnccc1N1CCN(C(=O)NCCCn2ncc3ccccc32)CC1	-17	2.3
CO[C@@H](Cn1c2c(cc(C#N)c1=O)CN(Cc1ccccc1)CC2)C1CCCC1	-2	0.33
CC1(CNC(=O)N2CC[C@H](CO)C2)CCCCCC1	-15	1.93
Cc1cc(CNCc2ccco2)c(C)n1-c1cc(S(=O)(=O)N2CCOCC2)ccc1N1CCCC1	20	-3.2
COCCCN(Cc1c(C)nn(-c2cccc(F)c2)c1N1CCN(C)CC1)C(=O)NC1CCCCC1	-3	0.36
Cn1c(C(=O)N2CCN(c3ccccn3)CC2)c(N2CCCC2=O)c2cc(F)ccc21	1	-0.12
CC1CN(C(=O)CN2CCCCC2Cn2cncn2)CCO1 (stereo not given)	-4	0.6
COc1ccc([C@@H]2CN(C(=O)Nc3nc(C)n(C)n3)CCO2)cc1	-6	1.08
CCc1nc2cc(N3CCCC(C(=O)NC(C)CC)C3)cnc2nc1CC (stereo not given)	0	0.08
CC(=O)N[C@H]1C[C@@H](c2cc(NCCc3ccccc3Cl)nc(C)n2)C1	0	-0.07

Compound	% Inhibition [%]	Z score
COc1ccc(-n2nc(C)c(CCC(=O)NCc3ccco3)c2Oc2ccccc2F)cc1	12	-1.19
Cc1ccc2c(c1)N(C(=O)c1coc(S(=O)(=O)N(C)C)c1)CCC2	-1	0.13
Cn1cc(C(=O)NCc2ccc3c(c2)nc(C2CC2)n3C)c(-c2ccoc2)n1	-8	0.81
C#CCNC(=O)NC1CCCC1n1ccnc1 (stereo not given)	-2	0.25
Cc1cc2c(C)c(C(=O)N3CCCCCC3)oc2c(S(=O)(=O)N2CCCc3ccccc32)c1C	-7	0.87
Cn1cnn(CC(=O)NC[C@H]2CCCC2(F)F)c1=O	-9	1.45
CCc1ccc(-c2n[nH]c(=O)c3c2CCCC3)cc1S(=O)(=O)NC1CCCCC1	0	-0.01
CCCN1CCN(Cc2ccc(C)c(F)c2C)[C@H]2CS(=O)(=O)C[C@H]21	-3	0.41
CCN(CC)C(=O)C1(NCC2CCOCC2)CCCCC1	-5	0.64
CCC1(CC)C(OC)CC1N(C)Cc1ncc[nH]1 (stereo not given)	-10	1.36
Cc1cccc(OCC(=O)N[C@H]2CCCN(c3cc(-c4ccccc4)n[nH]3)C2)c1	-24	2.38
Cn1cc(S(=O)(=O)Nc2cc(CCc3ccccc3)[nH]n2)cn1	-11	1.44
CCC1CN(C(=O)c2cc3c(OC)cc(OC)c(OC)c3[nH]2)CC2(CCOC2)O1 (stereo not given)	0	0.05
COCCN1CC[C@H](NC(=O)NCc2nc(C)c(C)s2)C1	8	-1.19
COc1ccc(Cl)cc1NCc1ccccc1-c1nnc(-c2ccccc2Cl)o1	-5	0.81
Cc1ncnc(C)c1C(=O)NC[C@H]1CCCN(C(=O)c2ncoc2C)C1	-5	0.6
Cn1nccc1S(=O)(=O)N1CCC[C@H](c2nnc3ccccn23)C1	6	-0.91
N#Cc1[nH]c(=O)n(Cc2ccccc2)c1NCc1ccccc1	-16	2.96
CCC(CC)c1cc(NC(=O)c2cc(OC)no2)[nH]n1	-5	0.5
Cn1nc(CN(Cc2ccco2)C(=O)Nc2c(F)cccc2F)c2c1CCC2	8	-1.1
O=C(Nc1ccccc1C(=O)N1CCN(c2ccccc2O)CC1)c1cccs1	5	-0.98
Cn1nc(CN2CCOCC2)c2c1CCN(S(=O)(=O)c1ccc3c(c1)CCC3)C2	-11	2.04

Compound	% Inhibition [%]	Z score
O=C(Cc1ccc(N(Cc2cccc(F)c2)C(=O)C2CCCC2)cc1)NCC1CC1	-1	0.13
CCN1CCC(N(CCc2ccccn2)Cc2n[nH]c(C)c2Cl)CC1	-8	1.11
Cc1ccc2c(n1)N(C)[C@H](CO)CCN(Cc1ccc(Cl)cc1)C2	7	-1.14
CCC(=O)N1CCCN(C2CCC2)C[C@H]1c1nc(C)no1	-13	2.48
Cc1nc2c(N3CCC[C@@]4(CNC(=O)O4)C3)ncnc2o1	-11	1.56
C[C@H](CCOC(=O)C[N+]1(C)CCCCC1)CCc1ccccc1	11	-1.47
O=C(Cn1nc(-c2ccc(F)cc2)c2cnc3ccccc3c21)Nc1ccccc1	-14	1.23
CCOC(=O)C(OC(=O)CCNc1ccccc1)C1CCOC1 (stereo not given)	-9	1.6
CCNC(=O)[C@H](C)NS(=O)(=O)c1cnnn1-c1ccccc1	23	-2.67
CC(C)NC(=O)Nc1ccc(N(C)C)c(CN(Cc2ccco2)C(=O)CC(C)(C)C)c1	-14	1.55
Cc1nn(CCNc2nnc(C(C)C)s2)c(C)c1C	-24	2.19
CCN(C(=O)c1cc(C)no1)c1ccc(F)c(F)c1	-3	0.45
Cc1nc(NC(=O)N2CCC(F)CC2)nn1C	-4	0.54
CCC(=O)Nc1c(-c2ccccn2)nsc1C(=O)NC1CCC(C)CC1 (stereo not given)	-12	1.16
Cc1nnc(C2CCCN2C(=O)N2C(C)CCCC2C)o1 (stereo not given)	-11	1.72
CCc1onc(C)c1NC(=O)N1CCOC(C)C1C (stereo not given)	-14	2.24
CCc1ccc(CN2C[C@@H]3c4ccc(OC)cc4OC[C@]3(CO)C2)o1	-17	2
CCc1noc(COCC(=O)N2CC(C)(C)c3ccc(Cl)cc32)n1	-12	1.43
C[C@]1(O)CCN(C(=O)Cc2ccc(O)cc2)C[C@H]1Cc1ccccc1	-8	1.5
Cc1nccn1-c1ncc(NC(=O)Cn2cnc3ccccc32)cn1	-4	0.68
O=C(c1ccco1)N1CCN(C(=O)c2ccco2)CC1	10	-1.63
COCC(C)(C)NC(=O)c1cnc2cc(=O)[nH]n2c1C	-9	1.22

Compound	% Inhibition [%]	Z score
Cc1cc(NS(=O)(=O)c2cnn(C(C)(C)C)c2)n(C)n1	-8	1.5
Cc1noc(C)c1CC(=O)N[C@H]1C[C@H](c2cc(=O)[nH]cn2)C1	-13	1.66
CC(=O)c1cn(CCn2cccn2)c(=O)n(C)c1=O	-5	0.72
COC[C@H](Nc1nccn2cnnc12)c1cccc(C(F)(F)F)c1	-2	0.33
CCN(Cc1nccn1C)C(=O)[C@@H](C)Cn1cncn1	7	-0.87
C[C@H](NCC(=O)N1CCc2ccccc2C1)C1CCOCC1	5	-0.78
CC(C)c1nc(N2C[C@H](C(C)C)[C@@H](N(C)C)C2)no1	-8	1.29
Fc1ccc2c(c1)C(c1ccccc1)=NNC(c1cccs1)=N2	-39	4.58
COc1cc2c(cc1OC)CN(C1CCN(CCn3cc(Cl)cn3)CC1)CC2	-1	0.13
CN(C)C(=O)[C@H]1CC[C@@H](C(=O)NCc2ccncc2OCC(F)(F)F)O1	-5	1.03
COc1cc(N)ccc1OCC(F)F	37	-4.21
CC(=O)N1N=C(c2ccncc2)C[C@]1(O)C(F)(F)F	-33	3.92
Cc1cccc(-n2cc(CN(C)C(=O)[C@@H](O)COc3ccccc3C)cn2)c1	-15	2.65
Cc1nc(N)nc(N2CCO[C@H](c3ccccc3)C2)c1CCC(=O)O	0	-0.08
C[C@@](O)(CNC(=O)N1CCNC1=O)Cc1ccsc1	17	-1.99
O=C1CC[C@@H](C(=O)N2CCC(c3noc(C(F)F)n3)CC2)n2cccc21	-8	1.17
Cc1ccc(C2OCCCC2CNC(=O)c2ccc(C)[nH]c2=O)cc1 (stereo not given)	-6	1.1
CCCc1cncnc1N1CCC[C@]2(CCC(=O)N(C(C)C)C2)C1	-5	0.77
Cc1cc(NC(=O)c2ncoc2C(C)C)n(-c2ccncc2)n1	-3	0.37
